Measured values published in US20210238308A1 (Chugai, published 2021).

T1: human TRIM21 PRYSPRY domain with N-terminal 6xHis tag (human)
T1 construct: Expressed from pET28a in E. coli; also called hTRIM21
T1 chain: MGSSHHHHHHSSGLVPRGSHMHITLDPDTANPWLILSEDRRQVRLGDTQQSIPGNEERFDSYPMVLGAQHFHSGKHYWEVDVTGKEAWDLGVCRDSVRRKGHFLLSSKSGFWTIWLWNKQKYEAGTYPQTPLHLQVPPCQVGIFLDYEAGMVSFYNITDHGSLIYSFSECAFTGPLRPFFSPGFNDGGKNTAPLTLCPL

B1: 3D8VH-G1m/hT4VL-KT0.Avi D312H (antibody, human IgG1, kappa)
heavy: EVQLVESGGGLVQPGGSLRLSCAASGYTFTSYVMHWVRQAPGKGLEWVSAINPYNDGNYYADSVKGRFTISRDNSRKTLYLQMNSLRAEDTAVYYCARGAYKRGYAMDYWGQGTTVTVSSASTKGPSVFPLAPSSKSTSGGTAALGCLVKDYFPEPVTVSWNSGALTSGVHTFPAVLQSSGLYSLSSVVTVPSSSLGTQTYICNVNHKPSNTKVDKKV[human IgG1 Fc with D312H (EU numbers) omitted here]
light: [about 200 residues omitted here]GGGGSGLNDIFEAQKIEWHE
B2: 3D8VH-G1m/hT4VL-KT0.Avi D312H.L432P (antibody, human IgG1, kappa)
heavy: EVQLVESGGGLVQPGGSLRLSCAASGYTFTSYVMHWVRQAPGKGLEWVSAINPYNDGNYYADSVKGRFTISRDNSRKTLYLQMNSLRAEDTAVYYCARGAYKRGYAMDYWGQGTTVTVSSASTKGPSVFPLAPSSKSTSGGTAALGCLVKDYFPEPVTVSWNSGALTSGVHTFPAVLQSSGLYSLSSVVTVPSSSLGTQTYICNVNHKPSNTKVDKKV[human IgG1 Fc with D312H L432P (EU numbers) omitted here]
light: [about 200 residues omitted here]GGGGSGLNDIFEAQKIEWHE
B3: 3D8VH-G1m/hT4VL-KT0.Avi D312H.M428F (antibody, human IgG1, kappa)
heavy: EVQLVESGGGLVQPGGSLRLSCAASGYTFTSYVMHWVRQAPGKGLEWVSAINPYNDGNYYADSVKGRFTISRDNSRKTLYLQMNSLRAEDTAVYYCARGAYKRGYAMDYWGQGTTVTVSSASTKGPSVFPLAPSSKSTSGGTAALGCLVKDYFPEPVTVSWNSGALTSGVHTFPAVLQSSGLYSLSSVVTVPSSSLGTQTYICNVNHKPSNTKVDKKV[human IgG1 Fc with D312H M428F (EU numbers) omitted here]
light: [about 200 residues omitted here]GGGGSGLNDIFEAQKIEWHE
B4: 3D8VH-G1m/hT4VL-KT0.Avi D312H.Q438E (antibody, human IgG1, kappa)
heavy: EVQLVESGGGLVQPGGSLRLSCAASGYTFTSYVMHWVRQAPGKGLEWVSAINPYNDGNYYADSVKGRFTISRDNSRKTLYLQMNSLRAEDTAVYYCARGAYKRGYAMDYWGQGTTVTVSSASTKGPSVFPLAPSSKSTSGGTAALGCLVKDYFPEPVTVSWNSGALTSGVHTFPAVLQSSGLYSLSSVVTVPSSSLGTQTYICNVNHKPSNTKVDKKV[human IgG1 Fc with D312H Q438E (EU numbers) omitted here]
light: [about 200 residues omitted here]GGGGSGLNDIFEAQKIEWHE
B5: 3D8VH-G1m/hT4VL-KT0.Avi D312H.T437D (antibody, human IgG1, kappa)
heavy: EVQLVESGGGLVQPGGSLRLSCAASGYTFTSYVMHWVRQAPGKGLEWVSAINPYNDGNYYADSVKGRFTISRDNSRKTLYLQMNSLRAEDTAVYYCARGAYKRGYAMDYWGQGTTVTVSSASTKGPSVFPLAPSSKSTSGGTAALGCLVKDYFPEPVTVSWNSGALTSGVHTFPAVLQSSGLYSLSSVVTVPSSSLGTQTYICNVNHKPSNTKVDKKV[human IgG1 Fc with D312H T437D (EU numbers) omitted here]
light: [about 200 residues omitted here]GGGGSGLNDIFEAQKIEWHE
B6: 3D8VH-G1m/hT4VL-KT0.Avi D312H.Y436T (antibody, human IgG1, kappa)
heavy: EVQLVESGGGLVQPGGSLRLSCAASGYTFTSYVMHWVRQAPGKGLEWVSAINPYNDGNYYADSVKGRFTISRDNSRKTLYLQMNSLRAEDTAVYYCARGAYKRGYAMDYWGQGTTVTVSSASTKGPSVFPLAPSSKSTSGGTAALGCLVKDYFPEPVTVSWNSGALTSGVHTFPAVLQSSGLYSLSSVVTVPSSSLGTQTYICNVNHKPSNTKVDKKV[human IgG1 Fc with D312H Y436T (EU numbers) omitted here]
light: [about 200 residues omitted here]GGGGSGLNDIFEAQKIEWHE
B7: 3D8VH-G1m/hT4VL-KT0.Avi I253F (antibody, human IgG1, kappa)
heavy: EVQLVESGGGLVQPGGSLRLSCAASGYTFTSYVMHWVRQAPGKGLEWVSAINPYNDGNYYADSVKGRFTISRDNSRKTLYLQMNSLRAEDTAVYYCARGAYKRGYAMDYWGQGTTVTVSSASTKGPSVFPLAPSSKSTSGGTAALGCLVKDYFPEPVTVSWNSGALTSGVHTFPAVLQSSGLYSLSSVVTVPSSSLGTQTYICNVNHKPSNTKVDKKV[human IgG1 Fc with I253F (EU numbers) omitted here]
light: [about 200 residues omitted here]GGGGSGLNDIFEAQKIEWHE
B8: 3D8VH-G1m/hT4VL-KT0.Avi I253F.D312H (antibody, human IgG1, kappa)
heavy: EVQLVESGGGLVQPGGSLRLSCAASGYTFTSYVMHWVRQAPGKGLEWVSAINPYNDGNYYADSVKGRFTISRDNSRKTLYLQMNSLRAEDTAVYYCARGAYKRGYAMDYWGQGTTVTVSSASTKGPSVFPLAPSSKSTSGGTAALGCLVKDYFPEPVTVSWNSGALTSGVHTFPAVLQSSGLYSLSSVVTVPSSSLGTQTYICNVNHKPSNTKVDKKV[human IgG1 Fc with I253F D312H (EU numbers) omitted here]
light: [about 200 residues omitted here]GGGGSGLNDIFEAQKIEWHE
B9: 3D8VH-G1m/hT4VL-KT0.Avi I253F.L432P (antibody, human IgG1, kappa)
heavy: EVQLVESGGGLVQPGGSLRLSCAASGYTFTSYVMHWVRQAPGKGLEWVSAINPYNDGNYYADSVKGRFTISRDNSRKTLYLQMNSLRAEDTAVYYCARGAYKRGYAMDYWGQGTTVTVSSASTKGPSVFPLAPSSKSTSGGTAALGCLVKDYFPEPVTVSWNSGALTSGVHTFPAVLQSSGLYSLSSVVTVPSSSLGTQTYICNVNHKPSNTKVDKKV[human IgG1 Fc with I253F L432P (EU numbers) omitted here]
light: [about 200 residues omitted here]GGGGSGLNDIFEAQKIEWHE
B10: 3D8VH-G1m/hT4VL-KT0.Avi I253F.M428F (antibody, human IgG1, kappa)
heavy: EVQLVESGGGLVQPGGSLRLSCAASGYTFTSYVMHWVRQAPGKGLEWVSAINPYNDGNYYADSVKGRFTISRDNSRKTLYLQMNSLRAEDTAVYYCARGAYKRGYAMDYWGQGTTVTVSSASTKGPSVFPLAPSSKSTSGGTAALGCLVKDYFPEPVTVSWNSGALTSGVHTFPAVLQSSGLYSLSSVVTVPSSSLGTQTYICNVNHKPSNTKVDKKV[human IgG1 Fc with I253F M428F (EU numbers) omitted here]
light: [about 200 residues omitted here]GGGGSGLNDIFEAQKIEWHE
B11: 3D8VH-G1m/hT4VL-KT0.Avi I253F.N315M (antibody, human IgG1, kappa)
heavy: EVQLVESGGGLVQPGGSLRLSCAASGYTFTSYVMHWVRQAPGKGLEWVSAINPYNDGNYYADSVKGRFTISRDNSRKTLYLQMNSLRAEDTAVYYCARGAYKRGYAMDYWGQGTTVTVSSASTKGPSVFPLAPSSKSTSGGTAALGCLVKDYFPEPVTVSWNSGALTSGVHTFPAVLQSSGLYSLSSVVTVPSSSLGTQTYICNVNHKPSNTKVDKKV[human IgG1 Fc with I253F N315M (EU numbers) omitted here]
light: [about 200 residues omitted here]GGGGSGLNDIFEAQKIEWHE
B12: 3D8VH-G1m/hT4VL-KT0.Avi I253F.N315Q (antibody, human IgG1, kappa)
heavy: EVQLVESGGGLVQPGGSLRLSCAASGYTFTSYVMHWVRQAPGKGLEWVSAINPYNDGNYYADSVKGRFTISRDNSRKTLYLQMNSLRAEDTAVYYCARGAYKRGYAMDYWGQGTTVTVSSASTKGPSVFPLAPSSKSTSGGTAALGCLVKDYFPEPVTVSWNSGALTSGVHTFPAVLQSSGLYSLSSVVTVPSSSLGTQTYICNVNHKPSNTKVDKKV[human IgG1 Fc with I253F N315Q (EU numbers) omitted here]
light: [about 200 residues omitted here]GGGGSGLNDIFEAQKIEWHE
B13: 3D8VH-G1m/hT4VL-KT0.Avi I253F.Q438E (antibody, human IgG1, kappa)
heavy: EVQLVESGGGLVQPGGSLRLSCAASGYTFTSYVMHWVRQAPGKGLEWVSAINPYNDGNYYADSVKGRFTISRDNSRKTLYLQMNSLRAEDTAVYYCARGAYKRGYAMDYWGQGTTVTVSSASTKGPSVFPLAPSSKSTSGGTAALGCLVKDYFPEPVTVSWNSGALTSGVHTFPAVLQSSGLYSLSSVVTVPSSSLGTQTYICNVNHKPSNTKVDKKV[human IgG1 Fc with I253F Q438E (EU numbers) omitted here]
light: [about 200 residues omitted here]GGGGSGLNDIFEAQKIEWHE

Target: T1, human TRIM21 PRYSPRY domain with …
Test: SPR, Ab captured on Protein L, hTRIM21 12.5-200 nM
Binder B1 has a Kd of 14.1 nM, a koff of 0.0389 s⁻¹ and a kon of 2.75e+06 M⁻¹ s⁻¹. Binder B2 has a Kd of 5.37 nM, a koff of 0.00982 s⁻¹ and a kon of 1.83e+06 M⁻¹ s⁻¹. Binder B3 has a Kd of 3.71 nM, a koff of 0.00747 s⁻¹ and a kon of 2.01e+06 M⁻¹ s⁻¹. With B4 the Kd was 3.55 nM, the koff was 0.00741 s⁻¹ and the kon was 2.09e+06 M⁻¹ s⁻¹. B5 was tested, and the Kd was 4.12 nM, the koff was 0.00934 s⁻¹ and the kon was 2.27e+06 M⁻¹ s⁻¹. With B6 the Kd was 6.2 nM, the koff was 0.00698 s⁻¹ and the kon was 1.13e+06 M⁻¹ s⁻¹. For B7, the Kd was 2.7 nM, the koff was 0.00765 s⁻¹ and the kon was 2.83e+06 M⁻¹ s⁻¹. With B8 the Kd was 1.17 nM, the koff was 0.00242 s⁻¹ and the kon was 2.06e+06 M⁻¹ s⁻¹. With B9 the Kd was 1.87 nM, the koff was 0.00386 s⁻¹ and the kon was 2.07e+06 M⁻¹ s⁻¹. Work on B10 yielded a Kd of 0.553 nM, a koff of 0.00117 s⁻¹ and a kon of 2.11e+06 M⁻¹ s⁻¹. B11 showed a Kd of 0.803 nM, a koff of 0.00174 s⁻¹ and a kon of 2.17e+06 M⁻¹ s⁻¹. B12 was tested, and the Kd was 1.03 nM, the koff was 0.00224 s⁻¹ and the kon was 2.17e+06 M⁻¹ s⁻¹. B13 was tested, and the Kd was 0.682 nM, the koff was 0.00197 s⁻¹ and the kon was 2.9e+06 M⁻¹ s⁻¹.
